Patent US20250255960A1 (HRAIN BIOTECHNOLOGY, published 2025)

T1: recombinant human CD70-alFc protein (human; alpaca, UniProt P32970 39-193)
T1 construct: range 39-193; Made in 293T cells; also called CD70-alIgG1Fc fusion protein; recombinant human CD70 protein
T1 sequence: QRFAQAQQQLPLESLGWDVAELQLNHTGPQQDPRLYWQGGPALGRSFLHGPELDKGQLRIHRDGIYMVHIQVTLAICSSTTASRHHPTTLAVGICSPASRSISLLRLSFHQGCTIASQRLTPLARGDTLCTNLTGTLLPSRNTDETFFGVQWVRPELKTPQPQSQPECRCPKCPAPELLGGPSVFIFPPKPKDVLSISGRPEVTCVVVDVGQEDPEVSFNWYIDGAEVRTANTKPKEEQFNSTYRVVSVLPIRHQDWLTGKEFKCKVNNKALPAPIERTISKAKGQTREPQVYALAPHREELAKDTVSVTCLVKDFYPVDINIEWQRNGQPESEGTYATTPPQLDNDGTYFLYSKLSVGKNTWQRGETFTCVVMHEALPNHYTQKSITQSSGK

B1: CD70-2A5 VHH-huIgG1-Fc (Fc fusion, human)
heavy: EVQLVESGGGLVQAGGSLRLSCAASGSIFSINAMGWYRQAPGKQRELVAAITSGGSTNYADSVKGRFTISRDNAKNTVYLQMNSLKPEDTAVYYCNAGAGRAFPGDYWGQGTQVTVSS[letters of human IgG1 Fc left out]
notes: domain: IgG1-Fc; Recombinant VHH-huIgG1-Fc made in 293F cells; also called VHH-huFc antibody CD70-2A5
B2: CD70-5C10 VHH-huIgG1-Fc (Fc fusion, human)
heavy: B1 heavy with E1Q, I31M, A60V
notes: domain: IgG1-Fc; Recombinant VHH-huIgG1-Fc made in 293F cells
B3: CD70-8A6 VHH-huIgG1-Fc (Fc fusion, human)
heavy: B1 heavy with L4V, A14P, G26R, A97S, Q113L
notes: as for B2
B4: CD70-8E1 VHH-huIgG1-Fc (Fc fusion, human)
heavy: B1 heavy with E1Q, S7T, S27N, I31N, G54D, A60V, Y79L, Q113L
notes: as for B2
B5: CD70-9D8 VHH-huIgG1-Fc (Fc fusion, human)
heavy: QLQLVESGGGLVQPGGSLRLSCAVSGRTSSTYAMAWFRQAPGKEREIVAVITWSGGRTAYADSVKGRFTIAKDSAKNTVYLQMNSLKPEDTAVYYCAADSEVSSSSEGQYGYESWGQGTQVTVSS[letters of human IgG1 Fc left out]
notes: domain: IgG1-Fc; Recombinant VHH-huIgG1-Fc made in 293F cells; also called VHH-huFc antibody CD70-9D8
B6: CD70-11C9 VHH-huIgG1-Fc (Fc fusion, human)
heavy: QVQLVESGGGLVQPGGSLRLSCAASGFTLDYYAVGWFRQAPGKEREGVSCISSSSDGSTYYVDSVLGRFTISRNNAENTVYLQMNSLKPEDTAVYYCSTDVLTSCRSDRYLEVWGQGTLVTVSG[letters of human IgG1 Fc left out]
notes: domain: IgG1-Fc; Recombinant VHH-huIgG1-Fc made in 293F cells; also called VHH-huFc antibody CD70-11C9
B7: CD70-8B4 VHH-huIgG1-Fc (Fc fusion, human)
heavy: EVQLVESGGGFVQPGGSLRLSCAASGFTLDGYAVAWFRQAPGKEREGVSCISSSDGSTYYIDSVQGRFTITRNNAKNTVYLQMNSLKPEDTAVYYCTTDVLTSCRSDRWLEVWGQGTLVTVSS[letters of human IgG1 Fc left out]
notes: domain: IgG1-Fc; Recombinant VHH-huIgG1-Fc made in 293F cells; also called VHH-huFc antibody CD70-8B4
B8: CD70-8F9 VHH-huIgG1-Fc (Fc fusion, human)
heavy: QLQLVESGGGLVQAGGSLRLSCAVSGRTSSTYAMAWFRQAPGKEREIVAVIGWSGGRTAYADSVKGRFTIAKDNAKNTVSLQMNSLKPEDTGVYYCAADSEQSSSSEGQAYGYEDWGQGTLVTVSS[letters of human IgG1 Fc left out]
notes: as for B2

Target: T1, recombinant human CD70-alFc protein
Experiment: ELISA; 100 ng/well recombinant human CD70 protein coated, VHH-huFc in gradient dilution
Procedure: The specific operation of the ELISA experiment is as follows: 100 ng/well of the recombinant human CD70 protein prepared above was added to the microtiter plate, and coated overnight at 4° C. Washed three times with PBS, 1% BSA/PBS was added, 200 μL/well, then the above microtiter plate was blocked at 37° C. for 1 hour. After washing the plate with 100 μL of PBS, the above four scFv proteins were added in gradient dilution, and combined at 37° C. for 1 hour. Washed three times with PBST, 100 μL of 1:5000 diluted HRP-goat anti-human IgG (Fab specific) was added, and bound for 1 hour at 37° C. Washed with PBST three times, 100 μL/well TMB chromogen solution was added for development at 37° C. for 10 minutes, 100 μL/well ELISA stop solution was added, the absorbance value at OD₄₅₀ was obtained with microplate reader, the results are shown by FIG. 7 and Table 3.

EC50 | Binder
5.55 ng/mL | B1
5.29 ng/mL | B2
8.73 ng/mL | B3
7.05 ng/mL | B4
4.97 ng/mL | B5
7.38 ng/mL | B6
5.95 ng/mL | B7
8.48 ng/mL | B8

Positions count from the first letter of the chain named.
